The IC50 comes from the fitted curve, where viability falls to half of the control; a limit (>, <) means that the fit lies beyond the doses tested. AUC sums up the same curve from the lowest dose to the 256-fold higher top dose: 1 means no effect, lower means more sensitive. For some assays here: A top dose marked as inferred comes from the curve model; the source does not state it.
Key:
Assay in all cases: Viability of human cancer cell lines after 72 h of drug (GDSC screen)
Erlotinib = compound: C#Cc1cccc(Nc2ncnc3cc(OCCOC)c(OCCOC)cc23)c1 [Erlotinib]; details: top dose 2 µM
Protocol: (§1)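 Human cancer cell lines in 384-well plates, medium with 10% serum, drug for 72 h over a 256-fold dose range (nine 2-fold or five 4-fold steps up to the top dose). Adherent lines were fixed and stained with the nucleic acid dye Syto60, suspension lines read with resazurin; signal relative to control wells, capped at 0 and 100%. One two-parameter sigmoid per drug and line, fitted in a mixed model over all curves with the slope shared within a line.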

QL-XI-92 = compound: C=CC(=O)Nc1cc(NC(=O)c2ccc(C)c(NC(=O)c3ccno3)c2)cc(C(F)(F)F)c1 [QL-XI-92]; details: top dose 10.24 µM; top dose inferred
Protocol: as §1

Vinorelbine = compound: CCC1=C[C@@H]2CN(C1)Cc1c([nH]c3ccccc13)[C@@](C(=O)OC)(c1cc3c(cc1OC)N(C)[C@H]1[C@@](O)(C(=O)OC)[C@H](OC(C)=O)[C@]4(CC)C=CCN5CC[C@]31[C@@H]54)C2 [Vinorelbine]; details: top dose 0.064 µM; top dose inferred
Protocol: as §1

AG-014699 = compound: CNCc1ccc(-c2[nH]c3cc(F)cc4c3c2CCNC4=O)cc1 [AG-014699]; details: top dose 5 µM; top dose inferred
Protocol: as §1

XL-184 = compound: COc1cc2nccc(Oc3ccc(NC(=O)C4(C(=O)Nc5ccc(F)cc5)CC4)cc3)c2cc1OC [XL-184]; details: top dose 5.12 µM; top dose inferred
Protocol: as §1

WHI-P97 = compound: COc1cc2ncnc(Nc3cc(Br)c(O)c(Br)c3)c2cc1OC [WHI-P97]; details: top dose 10.24 µM; top dose inferred
Protocol: as §1

Gefitinib = compound: COc1cc2ncnc(Nc3ccc(F)c(Cl)c3)c2cc1OCCCN1CCOCC1 [Gefitinib]; details: top dose 0.5 µM
Protocol: as §1

Phenformin = compound: N=C(N)NC(=N)NCCc1ccccc1 [Phenformin]; details: top dose 4000 µM; top dose inferred
Protocol: as §1

S-Trityl-L-cysteine = compound: N[C@@H](CSC(c1ccccc1)(c1ccccc1)c1ccccc1)C(=O)O [S-Trityl-L-cysteine]; details: top dose 5.12 µM; top dose inferred
Protocol: as §1

EHT 1864 = compound: O=c1cc(CN2CCOCC2)occ1OCCCCCSc1ccnc2cc(C(F)(F)F)ccc12 [EHT 1864]; details: top dose 10 µM; top dose inferred
Protocol: as §1

NU-7441 = compound: O=c1cc(N2CCOCC2)oc2c(-c3cccc4c3sc3ccccc34)cccc12 [NU-7441]; details: top dose 2 µM; top dose inferred
Protocol: as §1

GI-ME-N (neuroblastoma, adherent)
AUC (Erlotinib): 0.947
IC50 (Erlotinib): > 2 µM
AUC (QL-XI-92): 0.92
IC50 (QL-XI-92): > 10.2 µM
AUC (Vinorelbine): 0.542
IC50 (Vinorelbine): 0.00541 µM
AUC (AG-014699): 0.873
IC50 (AG-014699): > 5 µM
AUC (XL-184): 0.819
IC50 (XL-184): 4.38 µM
AUC (WHI-P97): 0.959
IC50 (WHI-P97): > 10.2 µM
AUC (Gefitinib): 0.966
IC50 (Gefitinib): > 0.5 µM
AUC (Phenformin): 0.592
IC50 (Phenformin): 488 µM
AUC (S-Trityl-L-cysteine): 0.743
IC50 (S-Trityl-L-cysteine): 2.09 µM
AUC (EHT 1864): 0.918
IC50 (EHT 1864): > 10 µM
AUC (NU-7441): 0.931
IC50 (NU-7441): > 2 µM

GR-ST (lymphoblastic leukaemia, suspension)
AUC (Erlotinib): 0.981
IC50 (Erlotinib): > 2 µM
AUC (QL-XI-92): 0.854
IC50 (QL-XI-92): > 10.2 µM
AUC (Vinorelbine): 0.581
IC50 (Vinorelbine): 0.00698 µM
AUC (AG-014699): 0.904
IC50 (AG-014699): > 5 µM
AUC (XL-184): 0.927
IC50 (XL-184): > 5.12 µM
AUC (WHI-P97): 0.917
IC50 (WHI-P97): > 10.2 µM
AUC (Gefitinib): 0.914
IC50 (Gefitinib): > 0.5 µM
AUC (Phenformin): 0.309
IC50 (Phenformin): 64.4 µM
AUC (S-Trityl-L-cysteine): 0.781
IC50 (S-Trityl-L-cysteine): 2.6 µM
AUC (EHT 1864): 0.85
IC50 (EHT 1864): > 10 µM
AUC (NU-7441): 0.979
IC50 (NU-7441): > 2 µM

GRANTA-519 (B-cell lymphoma, suspension)
AUC (Erlotinib): 0.991
IC50 (Erlotinib): > 2 µM
AUC (QL-XI-92): 0.946
IC50 (QL-XI-92): > 10.2 µM
AUC (Vinorelbine): 0.728
IC50 (Vinorelbine): 0.0164 µM
AUC (AG-014699): 0.991
IC50 (AG-014699): > 5 µM
AUC (XL-184): 0.991
IC50 (XL-184): > 5.12 µM
AUC (WHI-P97): 0.988
IC50 (WHI-P97): > 10.2 µM
AUC (Gefitinib): 0.991
IC50 (Gefitinib): > 0.5 µM
AUC (Phenformin): 0.733
IC50 (Phenformin): 1060 µM
AUC (S-Trityl-L-cysteine): 0.776
IC50 (S-Trityl-L-cysteine): 1.83 µM
AUC (EHT 1864): 0.987
IC50 (EHT 1864): > 10 µM
AUC (NU-7441): 0.971
IC50 (NU-7441): > 2 µM

GT3TKB (stomach, adherent)
AUC (Erlotinib): 0.99
IC50 (Erlotinib): > 2 µM
AUC (QL-XI-92): 0.987
IC50 (QL-XI-92): > 10.2 µM
AUC (Vinorelbine): 0.261
IC50 (Vinorelbine): 0.00092 µM
AUC (AG-014699): 0.95
IC50 (AG-014699): > 5 µM
AUC (XL-184): 0.99
IC50 (XL-184): > 5.12 µM
AUC (WHI-P97): 0.989
IC50 (WHI-P97): > 10.2 µM
AUC (Gefitinib): 0.987
IC50 (Gefitinib): > 0.5 µM
AUC (Phenformin): 0.844
IC50 (Phenformin): 2360 µM
AUC (S-Trityl-L-cysteine): 0.499
IC50 (S-Trityl-L-cysteine): 0.319 µM
AUC (EHT 1864): 0.857
IC50 (EHT 1864): 6.66 µM
AUC (NU-7441): 0.929
IC50 (NU-7441): > 2 µM

HAL-01 (lymphoblastic leukaemia, suspension)
AUC (Erlotinib): 0.981
IC50 (Erlotinib): > 2 µM
AUC (QL-XI-92): 0.824
IC50 (QL-XI-92): 5.17 µM
AUC (Vinorelbine): 0.982
IC50 (Vinorelbine): > 0.064 µM
AUC (AG-014699): 0.916
IC50 (AG-014699): > 5 µM
AUC (XL-184): 0.853
IC50 (XL-184): 3.3 µM
AUC (WHI-P97): 0.947
IC50 (WHI-P97): > 10.2 µM
AUC (Gefitinib): 0.976
IC50 (Gefitinib): > 0.5 µM
AUC (Phenformin): 0.48
IC50 (Phenformin): 223 µM
AUC (S-Trityl-L-cysteine): 0.668
IC50 (S-Trityl-L-cysteine): 0.884 µM
AUC (EHT 1864): 0.935
IC50 (EHT 1864): > 10 µM
AUC (NU-7441): 0.816
IC50 (NU-7441): 0.952 µM

HCC2218 (breast, suspension)
AUC (Erlotinib): 0.973
IC50 (Erlotinib): > 2 µM
AUC (QL-XI-92): 0.896
IC50 (QL-XI-92): > 10.2 µM
AUC (Vinorelbine): 0.799
IC50 (Vinorelbine): 0.0404 µM
AUC (AG-014699): 0.981
IC50 (AG-014699): > 5 µM
AUC (XL-184): 0.955
IC50 (XL-184): > 5.12 µM
AUC (WHI-P97): 0.955
IC50 (WHI-P97): > 10.2 µM
AUC (Gefitinib): 0.972
IC50 (Gefitinib): > 0.5 µM
AUC (Phenformin): 0.161
IC50 (Phenformin): 16.4 µM
AUC (S-Trityl-L-cysteine): 0.827
IC50 (S-Trityl-L-cysteine): 4.28 µM
AUC (EHT 1864): 0.943
IC50 (EHT 1864): > 10 µM
AUC (NU-7441): 0.977
IC50 (NU-7441): > 2 µM

HDLM-2 (Hodgkin lymphoma, suspension)
AUC (Erlotinib): 0.981
IC50 (Erlotinib): > 2 µM
AUC (QL-XI-92): 0.988
IC50 (QL-XI-92): > 10.2 µM
AUC (Vinorelbine): 0.764
IC50 (Vinorelbine): 0.0229 µM
AUC (AG-014699): 0.989
IC50 (AG-014699): > 5 µM
AUC (XL-184): 0.989
IC50 (XL-184): > 5.12 µM
AUC (WHI-P97): 0.988
IC50 (WHI-P97): > 10.2 µM
AUC (Gefitinib): 0.983
IC50 (Gefitinib): > 0.5 µM
AUC (Phenformin): 0.802
IC50 (Phenformin): 1920 µM
AUC (S-Trityl-L-cysteine): 0.707
IC50 (S-Trityl-L-cysteine): 1.22 µM
AUC (EHT 1864): 0.961
IC50 (EHT 1864): > 10 µM
AUC (NU-7441): 0.989
IC50 (NU-7441): > 2 µM

HSC-39 (stomach, suspension)
AUC (Erlotinib): 0.991
IC50 (Erlotinib): > 2 µM
AUC (QL-XI-92): 0.951
IC50 (QL-XI-92): > 10.2 µM
AUC (Vinorelbine): 0.946
IC50 (Vinorelbine): > 0.064 µM
AUC (AG-014699): 0.99
IC50 (AG-014699): > 5 µM
AUC (XL-184): 0.989
IC50 (XL-184): > 5.12 µM
AUC (WHI-P97): 0.991
IC50 (WHI-P97): > 10.2 µM
AUC (Gefitinib): 0.973
IC50 (Gefitinib): > 0.5 µM
AUC (Phenformin): 0.99
IC50 (Phenformin): > 4000 µM
AUC (S-Trityl-L-cysteine): 0.716
IC50 (S-Trityl-L-cysteine): 1.18 µM
AUC (EHT 1864): 0.862
IC50 (EHT 1864): 6.71 µM
AUC (NU-7441): 0.969
IC50 (NU-7441): > 2 µM

HT (B-cell lymphoma, suspension)
AUC (Erlotinib): 0.99
IC50 (Erlotinib): > 2 µM
AUC (QL-XI-92): 0.959
IC50 (QL-XI-92): > 10.2 µM
AUC (Vinorelbine): 0.732
IC50 (Vinorelbine): 0.0172 µM
AUC (AG-014699): 0.99
IC50 (AG-014699): > 5 µM
AUC (XL-184): 0.964
IC50 (XL-184): > 5.12 µM
AUC (WHI-P97): 0.969
IC50 (WHI-P97): > 10.2 µM
AUC (Gefitinib): 0.979
IC50 (Gefitinib): > 0.5 µM
AUC (Phenformin): 0.515
IC50 (Phenformin): 273 µM
AUC (S-Trityl-L-cysteine): 0.83
IC50 (S-Trityl-L-cysteine): 2.87 µM
AUC (EHT 1864): 0.982
IC50 (EHT 1864): > 10 µM
AUC (NU-7441): 0.931
IC50 (NU-7441): > 2 µM

HUTU-80 (digestive system, adherent)
AUC (Erlotinib): 0.99
IC50 (Erlotinib): > 2 µM
AUC (QL-XI-92): 0.852
IC50 (QL-XI-92): 5.92 µM
AUC (Vinorelbine): 0.414
IC50 (Vinorelbine): 0.00243 µM
AUC (AG-014699): 0.904
IC50 (AG-014699): 4.66 µM
AUC (XL-184): 0.84
IC50 (XL-184): 2.69 µM
AUC (WHI-P97): 0.96
IC50 (WHI-P97): > 10.2 µM
AUC (Gefitinib): 0.988
IC50 (Gefitinib): > 0.5 µM
AUC (Phenformin): 0.164
IC50 (Phenformin): 30.8 µM
AUC (S-Trityl-L-cysteine): 0.616
IC50 (S-Trityl-L-cysteine): 0.628 µM
AUC (EHT 1864): 0.897
IC50 (EHT 1864): 8.64 µM
AUC (NU-7441): 0.981
IC50 (NU-7441): > 2 µM

IMR-5 (neuroblastoma, adherent)
AUC (Erlotinib): 0.99
IC50 (Erlotinib): > 2 µM
AUC (QL-XI-92): 0.849
IC50 (QL-XI-92): 5.91 µM
AUC (Vinorelbine): 0.555
IC50 (Vinorelbine): 0.00551 µM
AUC (AG-014699): 0.988
IC50 (AG-014699): > 5 µM
AUC (XL-184): 0.903
IC50 (XL-184): 4.86 µM
AUC (WHI-P97): 0.989
IC50 (WHI-P97): > 10.2 µM
AUC (Gefitinib): 0.99
IC50 (Gefitinib): > 0.5 µM
AUC (Phenformin): 0.977
IC50 (Phenformin): > 4000 µM
AUC (S-Trityl-L-cysteine): 0.591
IC50 (S-Trityl-L-cysteine): 0.543 µM
AUC (EHT 1864): 0.962
IC50 (EHT 1864): > 10 µM
AUC (NU-7441): 0.992
IC50 (NU-7441): > 2 µM

Source: the supplement of paper PMC4967469
